This is an account of results in paper PMC9911399, “Two distinct binding modes provide the RNA-binding protein RbFox with extraordinary sequence specificity”.

Sequences and labels used below:
T1: RBFOX1 RRM (Homo sapiens, UniProt Q9NWB1 109-208)
T1 sequence: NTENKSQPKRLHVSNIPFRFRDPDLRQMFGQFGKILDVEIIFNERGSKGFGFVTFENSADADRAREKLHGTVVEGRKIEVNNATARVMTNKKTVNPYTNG

B1: GCACCGC (DNA:RNA)
RNA: GGGAGACCGGAAUUCAGAUUGUCCGCACCGCUUAAAUCCCGUCGUAGCCACCA
DNA 1: CAATCTGAATTCCGGTCTCCC
DNA 2: TGGTGGCTACGACGGGATT
B2: CAAAAUC (DNA:RNA)
RNA: B1 RNA with G25C, C26A, C28A, C29A, G30U
DNA 1: CAATCTGAATTCCGGTCTCCC
DNA 2: TGGTGGCTACGACGGGATT
B3: AUGGCAG (DNA:RNA)
RNA: B1 RNA with G25A, C26U, A27G, C28G, G30A, C31G
DNA 1: CAATCTGAATTCCGGTCTCCC
DNA 2: TGGTGGCTACGACGGGATT
B4: AGGACAU (DNA:RNA)
RNA: B1 RNA with G25A, C26G, A27G, C28A, G30A, C31U
DNA 1: CAATCTGAATTCCGGTCTCCC
DNA 2: TGGTGGCTACGACGGGATT
B5: AUGGAUC (DNA:RNA)
RNA: B1 RNA with G25A, C26U, A27G, C28G, C29A, G30U
DNA 1: CAATCTGAATTCCGGTCTCCC
DNA 2: TGGTGGCTACGACGGGATT
B6: GUAACGC (DNA:RNA)
RNA: B1 RNA with C26U, C28A
DNA 1: CAATCTGAATTCCGGTCTCCC
DNA 2: TGGTGGCTACGACGGGATT
B7: UUGUAUC (DNA:RNA)
RNA: B1 RNA with G25U, C26U, A27G, C28U, C29A, G30U
DNA 1: CAATCTGAATTCCGGTCTCCC
DNA 2: TGGTGGCTACGACGGGATT
B8: CUCUCAG (DNA:RNA)
RNA: B1 RNA with G25C, C26U, A27C, C28U, G30A, C31G
DNA 1: CAATCTGAATTCCGGTCTCCC
DNA 2: TGGTGGCTACGACGGGATT
B9: UCGGUCC (DNA:RNA)
RNA: B1 RNA with G25U, A27G, C28G, C29U, G30C
DNA 1: CAATCTGAATTCCGGTCTCCC
DNA 2: TGGTGGCTACGACGGGATT
B10: AGAGGAA (DNA:RNA)
RNA: B1 RNA with G25A, C26G, C28G, C29G, G30A, C31A
DNA 1: CAATCTGAATTCCGGTCTCCC
DNA 2: TGGTGGCTACGACGGGATT
B11: CAGGGUG (DNA:RNA)
RNA: GGGAGACCGGAAUUCAGAUUGUCCCAGGGUGUUAAAUCCCGUCGUAGCCACCA
DNA 1: CAATCTGAATTCCGGTCTCCC
DNA 2: TGGTGGCTACGACGGGATT
B12: CGAGCCU (DNA:RNA)
RNA: B11 RNA with A26G, G27A, G29C, U30C, G31U
DNA 1: CAATCTGAATTCCGGTCTCCC
DNA 2: TGGTGGCTACGACGGGATT
B13: ACUGGCG (DNA:RNA)
RNA: B11 RNA with C25A, A26C, G27U, U30C
DNA 1: CAATCTGAATTCCGGTCTCCC
DNA 2: TGGTGGCTACGACGGGATT
B14: AGCAUUA (DNA:RNA)
RNA: B11 RNA with C25A, A26G, G27C, G28A, G29U, G31A
DNA 1: CAATCTGAATTCCGGTCTCCC
DNA 2: TGGTGGCTACGACGGGATT
B15: UACCGUU (DNA:RNA)
RNA: B11 RNA with C25U, G27C, G28C, G31U
DNA 1: CAATCTGAATTCCGGTCTCCC
DNA 2: TGGTGGCTACGACGGGATT
B16: CUCAGUG (DNA:RNA)
RNA: B11 RNA with A26U, G27C, G28A
DNA 1: CAATCTGAATTCCGGTCTCCC
DNA 2: TGGTGGCTACGACGGGATT
B17: GUUUGUC (DNA:RNA)
RNA: B11 RNA with C25G, A26U, G27U, G28U, G31C
DNA 1: CAATCTGAATTCCGGTCTCCC
DNA 2: TGGTGGCTACGACGGGATT
B18: ACUUAUC (DNA:RNA)
RNA: B1 RNA with G25A, A27U, C28U, C29A, G30U
DNA 1: CAATCTGAATTCCGGTCTCCC
DNA 2: TGGTGGCTACGACGGGATT
B19: ACCACAU (DNA:RNA)
RNA: B1 RNA with G25A, A27C, C28A, G30A, C31U
DNA 1: CAATCTGAATTCCGGTCTCCC
DNA 2: TGGTGGCTACGACGGGATT
B20: AAGAUAG (DNA:RNA)
RNA: B11 RNA with C25A, G28A, G29U, U30A
DNA 1: CAATCTGAATTCCGGTCTCCC
DNA 2: TGGTGGCTACGACGGGATT

Where a chain is given by its changes, count along the chain named. This is one part of the list.

The assay has as its target T1, RBFOX1 RRM. The experiment in a line: EMSA; HiTS-Eq, 1 nM pool, 10 min; buffer printed only for the single-RNA assays: 10 mM Tris pH 7.5, 150 mM NaCl, 3.4 mM EDTA, 0.001% NP-40, 30 C. The note with it: tags: His6 N-terminal (pET28a); label: 5' 32P. Put shortly: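 A pool of RNA with 7 randomized nucleotides, 5′-radiolabelled and with DNA-annealed flanks, was equilibrated at 1 nM for 10 min in 50 µL with purified RbFox RRM, wild type or mutant, across increasing protein concentrations. Free RNA was separated by 8% native PAGE, excised, reverse-transcribed, barcoded by PCR and sequenced. Relative association constants were obtained from read-count changes of each RNA species versus the control reaction and normalised to the cognate motif.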
For orientation: Mobility shift assays separate free from complexed probe on a gel.
In the case of B1, the binding signal was 0.00949 KA relative to UGCAUGU.
For B2, the binding signal was 0.00237 KA relative to UGCAUGU.
With B3, the binding signal is 0.0134 KA relative to UGCAUGU.
B4: the binding signal was 0.00885 KA relative to UGCAUGU.
With B5, the binding signal is 0.0153 KA relative to UGCAUGU.
Regarding B6, the binding signal is 0.0122 KA relative to UGCAUGU.
With B7, the binding signal was 0.00973 KA relative to UGCAUGU.
As to B8, the binding signal is 0.00909 KA relative to UGCAUGU.
As to B9, the binding signal is 0.00905 KA relative to UGCAUGU.
To B10 belongs 0.00495 KA relative to UGCAUGU; to B11, 0.015 KA relative to UGCAUGU.
To B12 belongs 0.00855 KA relative to UGCAUGU.
The same measure for B13: 0.0166 KA relative to UGCAUGU; for B14: 0.00395 KA relative to UGCAUGU.
As for B15, the binding signal is 0.00599 KA relative to UGCAUGU.
Turning to B16, the binding signal is 0.0114 KA relative to UGCAUGU.
The same measure for B17: 0.0258 KA relative to UGCAUGU.
As for B18, the binding signal was 0.00272 KA relative to UGCAUGU.
Turning to B19, the binding signal is 0.000362 KA relative to UGCAUGU.
The same measure for B20: 0.00864 KA relative to UGCAUGU.
